# Out of some 50,000 compounds screened, about 800 (1.6%) showed an effect of 50% or more. The list shows a part of the results.
# Target: Bcl-2-like protein 10 (Homo sapiens) (UniProt Q9HD36)
# Experiment: TR3 peptide-Bcl-B binding displacers, biochemical primary FP assay, phenotype converters (AID 1240);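 also: 0% = Bcl-B with tracer peptide and DMSO and 100% = tracer peptide lacking Bcl-B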
# Conditions: GST-Bcl-B / FITC-TR3 peptide fluorescence polarization; stronger effect = higher value; compound at 3.75 mg/L
# Chain of UniProt Q9HD36 (Q9HD36 whole entry, looked up): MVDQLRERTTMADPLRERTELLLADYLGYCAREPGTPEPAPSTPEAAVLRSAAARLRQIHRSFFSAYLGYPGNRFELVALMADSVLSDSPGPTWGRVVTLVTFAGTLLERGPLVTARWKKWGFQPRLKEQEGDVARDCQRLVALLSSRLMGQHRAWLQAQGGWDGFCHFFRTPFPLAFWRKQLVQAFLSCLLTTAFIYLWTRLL
row,Structure (SMILES),displacement [%]
1,COc1ccc(S(=O)(=O)n2cnc3cc(C)c(C)cc32)cc1,-5.6
2,CN1/C(=C\C(=O)Nc2ccccc2Br)c2ccccc2CC1(C)C,9.8
3,COC(=O)c1c(C)oc2cc(Br)c(OCc3ccccc3)cc12,8.3
4,O=C(NN1C(=O)S/C(=C\c2ccc(Cl)cc2Cl)C1=S)c1ccccc1O,-0.2
5,Cc1ccc(O)c(NC(=O)c2cnn3c(C(F)(F)F)cc(-c4ccco4)nc23)c1,12.1
6,CCOc1ccc(C(=O)Nc2ccccc2C(=O)OC)cc1Br,0.9
7,COc1cccc(/C=C2/C(=O)NC(=O)N(c3ccc(C(C)C)cc3)C2=O)c1O,-15.1
8,C(=N\n1cnnc1)/c1ccc(-c2cccc3ccccc23)o1,-9
9,Cc1ccc(NC(=O)O/N=C\c2ccc(F)cc2)cc1,-7.2
10,CCN(CC)c1ccc(/C=c2\sc3n(c2=O)C(c2ccc(OC)cc2OC)C(C(C)=O)=C(C)N=3)c(OC)c1 (configuration not stated),-52.5
11,COc1ccc(Nc2nc(C(F)(F)F)nc(C)c2C#N)cc1,-4.2
12,COc1cc(NC(=O)C2CCCC2)c(OC)cc1Cl,-11.6
13,Cc1ccc(OCC(=O)Nc2ccc(C(N)=O)cc2)c(Br)c1,15.1
14,CCCCN(CCCC)C(=O)CSc1nc2ccccc2[nH]1,12.2
15,COc1cc(C(=O)O)c(-n2c(C)ccc2C)cc1OC,74.7
16,Cc1oc(C(C)(C)C)cc1C(=O)Nc1ccc(CC(=O)O)cc1,-3.8
17,Cn1c(CC(O)c2ccccc2)nc2ccccc21 (configuration not stated),12.6
18,Cc1c(NC(=O)c2nn3c(c2Br)NC(c2ccccc2)CC3C(F)(F)F)c(=O)n(-c2ccccc2)n1C (configuration not stated),9.6
19,COC(=O)c1c(C)oc2ccc(OC(=O)c3ccc(Cl)cc3)cc12,12.7
20,COc1ccc2oc(=O)c(C(=O)O)cc2c1,12.3
21,Cc1ccc(OCC(=O)NCc2ccc3c(c2)OCO3)c(C)c1,-2.3
22,Cc1cccc(OCC(=O)Nc2ccc(Cl)c(C(F)(F)F)c2)c1,12.3

row,Structure (SMILES),displacement [%]
1,O=C1OC2C=CC(Br)=CC2=CC1C(=O)N1CCSC1c1ccccc1Cl (configuration not stated),11.6
2,O=C(CN(c1cccc([N+](=O)[O-])c1)S(=O)(=O)c1ccccc1)NCCSc1ccc(Cl)cc1,11.6
3,C#CCC(CC#C)(C(=O)OC)C(=O)OC,15.4
4,N#CCOc1ccccc1/C=C1/Sc2ccccc2C1=O,6.6
5,C(=N\Nc1nnc2c(n1)[nH]c1ccccc12)/c1c[nH]c2ccccc12,12.9
6,COc1ccc(-c2cc(C(=O)Nc3c(Cl)cccc3Cl)c3ccccc3n2)cc1,2.5
7,COc1c(Cl)cc(Cl)cc1/C=c1/sc2nc3ccccc3n2c1=O,23.1
8,CCCCNc1ccc2c3c(cc(=O)n2C)-c2ccccc2C(=O)c13,129
9,N#Cc1c(N)nc2c(c1-c1ccc(F)cc1)CCCC2,-0.5
10,O=C(/C=C/c1ccc([N+](=O)[O-])cc1)N1CCc2ccccc2C1,0.4
11,COc1cc(/C=C2\C(=O)ON=C2c2ccccc2)cc(OC)c1OC,0.1
12,COc1cccc(NC(=O)c2c(-c3ccccc3Cl)noc2C)c1,-2.9
13,COc1cc(/C=C2\C(=O)NC(=O)N(c3cc(C)cc(C)c3)C2=O)cc([N+](=O)[O-])c1O,10
14,CCOc1ccc(C(=O)Nc2ccc(-c3nc4ccc(C)cc4s3)cc2)cc1,13.3
15,COc1ccc(NC(=O)c2cc(Br)ccc2I)cc1Cl,11.8
16,CCc1ccc(-c2c(C)sc(N)c2C(=O)OC)cc1,7.1
17,COc1cc(C2/C(=C(\O)c3ccccc3)C(=O)C(=O)N2c2cccc(Cl)c2)ccc1O (configuration not stated),2.7
18,Cc1cc(NC(=O)c2ccc(-c3cc(Cl)ccc3Cl)o2)ccc1NC(=O)c1ccco1,-27.8
19,CC1(C)Cc2c(sc3[nH]c(=S)[nH]c(=S)c23)CO1,-18.6
20,O=C(Cc1ccccc1)NC(CCC(=O)OCc1ccccc1)C(=O)NCCO (configuration not stated),-6.1
21,CC(C)c1ccc(C(=O)Nc2ccc(Cl)cn2)cc1,16.8
22,CCOc1ccc(N2C(=O)c3ccccc3NC2c2cccc([N+](=O)[O-])c2)cc1 (configuration not stated),-1

row,Structure (SMILES),displacement [%]
1,COc1ccccc1NC(=O)C(=O)N=Nc1c(O)n(CC(=O)Nc2ccccc2)c2ccccc12,1.1
2,CN1C(=O)C(=Cc2ccc(N3CCOCC3)cc2)C(=O)N(C)C1=O,8.9
3,CCCCc1nnc(NC(=O)CCc2ccccc2)s1,5.7
4,Cc1cc(C)cc(N2C(=O)NC(=O)/C(=C\c3ccc(F)cc3)C2=O)c1,7.7
5,O=C(N/C(=C/c1cccc([N+](=O)[O-])c1)C(=O)N1CCCC1)c1ccccc1,-1.6
6,COc1cccc(NC(=O)C(=O)N/N=C/c2cc(OC)ccc2OC)c1,18.4
7,COC(=O)C1=CNC=C(C(=O)OC)C1c1cccc(C)c1,2.4
8,O=C(N=Nc1c(O)n(CN2CCOCC2)c2ccccc12)c1ccncc1,-14.3
9,COc1ccccc1C(=O)N1CCN(Cc2ccncc2)CC1,-7.2
10,c1ccc(-c2nnc(NCc3nc4ccccc4[nH]3)c3ccccc23)cc1,-3.9
11,O=C(Nc1c(C(=O)NCCc2ccccc2)cnn1-c1ccccc1)c1cccc(F)c1,0.8
12,COc1cc(/C=N\N2CCN(c3ccccc3)CC2)ccc1O,1.8
13,COc1ccccc1NC(=O)c1c(NC(=O)Cc2ccccc2)sc2c1CCC2,-8.5
14,C=CCOC(=O)C1=C(C)N(CC)C(=O)NC1c1cc(Br)c(O)c(OC)c1 (configuration not stated),5.6
15,CCOC(=O)c1ccc(N2C(=O)CC(NCCc3ccc(OC)cc3)C2=O)cc1 (configuration not stated),12.9
16,CCOC(=O)c1c(NC(=O)C2CC2)sc(C(=O)Nc2ccc(OC)cc2OC)c1C,-1.2
17,Cc1ccc(N=Cc2c(C(F)(F)F)[nH]n(-c3ccccc3)c2=O)cc1,-3.8
18,Cc1cc(Cl)cc(C(=O)Nc2ccc([N+](=O)[O-])cc2Cl)c1O,3.3
19,CCOC(=O)c1ccc(N2NC(=O)/C(=C/c3ccc(Cl)c([N+](=O)[O-])c3)C2=O)cc1,7.9
20,Cc1cc(-c2ccccc2)nc(N/N=C/c2ccc([N+](=O)[O-])cc2)n1,-5.1
21,CCCS(=O)(=O)c1c(S(=O)(=O)CCC)c2ccccn2c1C(=O)c1ccc(C)cc1,-1
22,O=C(c1ccc([N+](=O)[O-])cc1)N1CCN(Cc2cccc3ccccc23)CC1,-8

row,Structure (SMILES),displacement [%]
1,O=C(CSc1nc2ccc(Br)cc2c(=O)n1-c1ccccc1)NC1CCCC1,13.4
2,COC(=O)c1ccc(/C=C2\SC(=S)N(Nc3ccccc3)C2=O)cc1,-10
3,CCOc1cc(/C=N/NC(=O)Cc2cccc3ccccc23)cc([N+](=O)[O-])c1O,11.8
4,O=C1c2cccc3cccc(c23)C(=O)N1/N=C/c1ccccc1O,-11.5
5,O=S(=O)(CCc1nnc(-c2ccccc2)o1)c1ccc(Cl)cc1,6.9
6,O=C(Nc1ccc2ccccc2c1)c1ccc(C(F)(F)F)cc1,3.8
7,COc1ccccc1NC(=O)c1c(NC(=O)C(Cl)(Cl)Cl)sc2c1CCC2,10.2
8,Cc1cc(C(=O)N/N=C/c2ccc(Br)c([N+](=O)[O-])c2)n[nH]1,5.2
9,O=C(NCCNc1ccc(Cl)cc1[N+](=O)[O-])c1ccccc1F,-0.6
10,COc1cc(C(=O)N2CCN(c3ccc(F)cc3)CC2)cc(OC)c1OC,-8
11,CCCC(=O)NS(=O)(=O)c1ccc(NS(C)(=O)=O)cc1,9.5
12,O=C(CSc1ncn[nH]1)Nc1cccc(C(=O)O)c1,-1.5
13,Cc1cc(C)cc(CC2CC(=O)N(c3ccc(C)cc3Br)C2=O)c1 (configuration not stated),-3.3
14,C=CCNC(=O)c1ccc(CN(c2cccc(Cl)c2)S(C)(=O)=O)cc1,9.4
15,CCCCOC(=O)CCCN1C(=O)/C(=C/c2ccccc2)SC1=S,45.9
16,CC1=C(C(=O)Nc2cccc(Cl)c2C)C(c2cccc([N+](=O)[O-])c2)NC(=O)N1 (configuration not stated),-8.4
17,Cc1[nH]n(-c2ccccc2)c(=O)c1C=Nc1ccc(Br)cn1,6.5
18,C=CCN1C(=O)/C(=C\c2c(Cl)cccc2Cl)SC1=S,3.9
19,CC(=O)NC1=NC(=O)/C(=C/c2cc(Cl)ccc2OCc2c(F)cccc2Cl)S1,112
20,CN(C)c1ccc(/C=N/Nc2ncnc3c2cnn3Cc2ccccc2)cc1,5.7
21,O=C(N/N=C/c1ccc(-c2cc(C(F)(F)F)ccc2Cl)o1)c1ccncc1,1.2
22,COc1ccc(-c2cnc(NC(=O)/C=C/c3cccs3)s2)cc1,-44.7

row,Structure (SMILES),displacement [%]
1,NS(=O)(=O)c1cccc(NC(=O)COc2ccc(Br)cc2)c1,-2.2
2,COc1cccc(OC)c1C(=O)Nc1ccccc1C(F)(F)F,-5.4
3,CC(=O)NC1=NC(=O)/C(=C/c2ccc(C)cc2)S1,118
4,Cn1c2c(c(=O)[nH]c1=O)C(c1ccc(Cl)cc1)C1=C(N2)c2ccccc2C1=O (configuration not stated),1.2
5,O=C1Nc2ccccc2C12NN=C(c1ccccc1)S2 (configuration not stated),-10.6
6,COc1ccc(N(CC(=O)N2CCCCCC2)S(=O)(=O)c2ccccc2[N+](=O)[O-])c(OC)c1,-5.7
7,O=C(Nc1ccccc1C(=O)NC1CCCCC1)c1ccccc1,0.8
8,C=CCc1cc(/C=C2\C(=O)NC(=O)N(c3ccc(Br)c(C)c3)C2=O)cc(OC)c1O,-23.5
9,O=C(NCc1ccc(Cl)cc1)C(=O)Nc1ccc([N+](=O)[O-])cc1,9.4
10,O=C1c2ccccc2NC(c2ccc(O)cc2)N1Cc1ccco1 (configuration not stated),13.9
11,Cc1nc2ccccc2n1CCOc1ccc(Cl)cc1,5.5
12,COc1ccc(/C=C/C(=O)Nc2ccc(-c3ccccc3)cc2)cc1OC,0.1
13,O=C(NCCCc1ccccc1)C1(c2ccccc2)CCCC1,-2.3
14,Cc1cccc(NC(=O)CSc2nnc(NC(=O)CN3CCOCC3)s2)c1,-8
15,CCOc1ccc(-c2c(C)sc(N)c2C(=O)OC(C)C)cc1,-9.2
16,COc1ccccc1C(=O)NNC(=O)C(c1ccccc1)c1ccccc1,0
17,COc1cc(/C=N/NC(=O)c2cccnc2)ccc1OC(=O)c1cccc(Br)c1,14.1
18,CC1=C(C(=O)Nc2ccc(Cl)cc2)C(c2cccc(Br)c2)NC(=O)N1 (configuration not stated),-7.6
19,O=C(Nc1ccc(O)c(-c2nc3ccccc3s2)c1)c1cccc(Cl)c1Cl,3.4

# Reference: PubChem BioAssay AID1240 (Sanford-Burnham Center for Chemical Genomics, 2008)
